# Measured values as given in patent US6750034B1, “DNA encoding human serine protease D-G” (Ortho-McNeil Pharmaceutical, Inc., priority 2000, dated 2004).
# B1: PFEK-protease D-G-6×HIS zymogen: recombinant protease D-G catalytic domain in zymogen activation construct (prolactin signal, FLAG, enterokinase site, 6×HIS), expressed in Sf9 cells (protein)
# chain: MDSKGSSQKSRLLLLLVVSNLLLCQGVVSDYKDDDDVDAAALAAPFDDDDKIVGGYALDVDSWPWQVSIQYDKQHVCGGSILDPHWVLTAAHCFRKHTDVFNWKVRAGSDKLGSFPSLAVAKIIIIEFNPMYPKDNDIALMKLQFPLTFSGTVRPICLPFFDEELTPATPLWIIGWGFTKQNGGKMSDILLQASVQVIDSTRCNADDAYQGEVTEKMMCAGIPEGGVDTCQGDSGGPLMYQSDQWHVVGIVSWGYGCGGPSTPGVYTKVSAYLNWIYNVWKAELSRHHHHHH
# Experiment: Chromogenic amidolytic assay of the unactivated zymogen
# Assay type: biochemical
# Conditions: purified unactivated zymogen, not cleaved by enterokinase
# Protocol: Amidolytic activities of the activated serine proteases are monitored by release of para-nitroaniline (pNA) from synthetic substrates that are commercially available (Bachem California Inc., Torrance, […].; American Diagnostica Inc., Greenwich, Conn.; Kabi Pharmacia Hepar Inc., Franklin, Ohio). Assay mixtures contain chromogenic substrates in 500 uM and 10 mM TRIS-HCl (pH 7.8), 25 mM NaCl, and 25 mM imidazole. Release of pNA is measured over 120 min at 37° C. on a micro-plate reader (Molecular Devices, Menlo Park, Calif.) with a 405 nm absorbance filter. The initial reaction rates (Vmax, mOD/min) are determined from plots of absorbance versus time using Softmax (Molecular Devices, Menlo Park, Calif.). The specific activities (nmole pNA produced/min/ug protein) of the activated protease D-G-6×HIS for the various substrates are presented in Table 1.
molecule,measurement,value
B1,chromogenic amidolytic activity,No measurable chromogenic amidolytic activity
